# Data published in article PMC12040169 (PLOS Biology, 2025).
# Some of the results follow.
# Tested on: T1, C. trachomatis L2/434/Bu expressing GFP (CTL2-GFP)
# T1 construct: L2/434/Bu GFP intracellular growth in HeLa cells
# Design: species or system HeLa; C. trachomatis total inclusion area by high-content imaging, normalised to DMSO
# Details: total inclusion area; 28.5 h, 10 µM; inhibitor
# Method in brief: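 Post-fluorescence-read fixation, DNA staining with Hoechst and high-content imaging; GFP inclusion area and number per well, and nuclei counts, used as proxies for bacterial growth and host viability.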
row,SMILES,% of control remaining
1,CC(C)n1ccnc1CNc1cccc(OCC(=O)N2CCCC2)c1 [CBK305377],134.254
2,c1cc(-c2nnc3n2CCCCS3)ccn1 [CBK288543],81.7486
3,COCc1ccc(Nc2ccccc2S(=O)(=O)c2ccccc2)cc1OCC1CCN(C(=O)OC(C)(C)C)CC1 [CBK175577],77.1724
4,COCCn1nnnc1C(c1cc2c(C)ccc(C)c2[nH]c1=O)N1CCN(C(=O)c2ccco2)CC1 (centres unmarked) [CBK111563],62.5662
5,COc1ccc([C@@]23CC[C@@H](NC(=S)NC(C)=O)C[C@@H]2N(Cc2ccccc2)CC3)cc1OC [CBK025503T],83.1215
6,Cc1ccc(S(=O)(=O)n2ccc3ccc(N4CCN(C)CC4)nc32)cc1 [CBK063327],81.7934
7,Cc1csc(C(Cc2ccsc2)NC(=O)CN2CCCC2=O)n1 (centres unmarked) [CBK285046],81.8972
8,COc1ccc(C2NC(C(=O)O)CS2)cc1CN1CCOCC1 (centres unmarked) [CBK287132],106.34
9,Cc1ccc(C2=NN(c3ccccc3)C(c3cn(CCC(=O)O)nc3-c3ccccc3)C2)cc1 (centres unmarked) [CBK296110],86.6864
10,CCc1nn(CC(=O)NC2CCC2)c(=O)c2cc3ccsc3n12 [CBK284136],75.3816
11,Cc1ccc(NC(=O)c2cscn2)c(C)n1 [CBK200297],79.611
12,Cn1ccnc1Sc1nc2ccccc2nc1N1CCCC1 [CBK093791],100.365
13,O=C(NCC1CCNCC1)c1ccncc1 [CBK267637C],105.155
14,Cc1cc(NC(=O)c2cc(Br)cnc2NCc2cccnc2)n(C)n1 [CBK076358],92.1835
15,Cc1ccc(Cl)cc1-n1cc(-c2ccc(F)cc2)nn1 [CBK113128],98.6743
16,Cc1nc(NCc2ccc(C(F)(F)F)cc2)nc(N2CCOCC2)n1 [CBK023863],67.3638
17,CO/N=C(N)/C(N)=N/OC [CBK019780],34.8058
18,O=C(Cn1c(-c2cncs2)nc2ccccc21)NCc1ccc2c(c1)OCO2 [CBK264699],102.565
19,CCc1cccc2c(CC(=O)N(C)CCN(C)C)c(C)[nH]c12 [CBK282673],92.2749
20,O=C(c1ccc(C#CC2(O)CCCCC2)cc1)N1CCC(C(O)(c2ccccc2)c2ccccc2)CC1 [CBK033758],65.5621
21,COc1ccc(C)cc1S(=O)(=O)N1CCc2c(CN3CCN(C)CC3)cccc21 [CBK113628T],71.9902
22,Cn1cccc1CNCCc1ccc(S(N)(=O)=O)cc1 [CBK267831C],100.754
23,CC(C)N1CCC(C(=O)NC(=O)NCCc2ccc3c(c2)OCO3)CC1 [CBK034804],97.6996
24,COc1ccccc1C(=O)N1CCC(C(=O)N(C)C(c2ccccc2)c2ncccc2C)CC1 (centres unmarked) [CBK060531],100.916
25,CCOc1cc(CCC(=O)NC(C)c2ccccc2)on1 (centres unmarked) [CBK282597],127.745
26,O=[N+]([O-])c1cccc(-c2noc(COc3ccc(Br)cc3Cl)n2)c1 [CBK264452],95.5261

row,SMILES,% of control remaining
1,CC(=O)c1cn(CCC(=O)NC2CCCN(C)C2)c2ccccc12 (centres unmarked) [CBK282503],102.579
2,COc1cccc2cc(C(=O)NCc3ccc(NS(C)(=O)=O)cc3)oc12 [CBK161479],72.5732
3,C[C@@H]1CN(Cc2ccco2)[C@H](C)CN1CC(=O)Nc1nc2c(s1)CCCC2 [CBK286530],113.902
4,CN1CCN(CCCNC(=O)N2CCN(c3ccccc3)CC2)CC1 [CBK155168],67.8789
5,O=C(O)COc1ccc(N2C(=O)c3ccc(Oc4cccc([N+](=O)[O-])c4)cc3C2=O)cc1 [CBK264259],107.181
6,CCN1C(=O)CC2(C1=O)C(=O)N(CC)c1ccc(C)cc12 (centres unmarked) [CBK075140],103.735
7,O=C(C1=C(O)C(=O)N(Cc2cccnc2)C1c1ccncc1)c1ccc(Cl)cc1 (centres unmarked) [CBK264513],106.025
8,CN(c1cccc(NS(=O)(=O)c2ccc3ccccc3c2)c1)S(C)(=O)=O [CBK267507],117.68
9,C=CCN1C(=O)C2(CC(=O)N(Cc3ccc(OC)c(OC)c3)C2=O)c2ccccc21 (centres unmarked) [CBK075148],87.2362
10,O=C(Nc1ccccc1)Nc1ccc(=O)n2c1[C@@H]1C[C@@H](CN(C(=O)c3ccc(F)cc3)C1)C2 [CBK288714],98.3949
11,CN1CCC(N(C)C(=O)c2cc3oc(-c4ccccc4)nc3c(=O)n2C)C1 (centres unmarked) [CBK200424T],78.6086
12,Cn1c(-c2ccccc2F)n[nH]c1=S [CBK028811],100.974
13,COc1cccc(-c2cnc3[nH]c(=O)n(Cc4ccc(Cl)cc4)c3n2)c1 [CBK064596],102.975
14,CC(=O)Oc1cc(C(F)(F)F)nc(NCc2ccc(Cl)cc2)n1 [CBK000500],74.6357
15,O=C(NCc1nnc(-c2cccs2)o1)c1cccc(Cl)c1 [CBK284633],80.9542
16,CCn1cc(C(=O)N2CCn3cc(C(F)(F)F)nc3C2)c(C)n1 [CBK283916],80.649
17,O=C(c1ccco1)N1CCN(c2ncc(-c3ccc(N4CCOCC4)cc3)n3ccnc23)CC1 [CBK091225],97.4703
18,CC(=O)Nc1ccc(S(=O)(=O)NC2(C(F)(F)F)N=C(c3ccccc3)NC2=O)cc1 (centres unmarked) [CBK267932],105.851
19,O=C(NCC1CCN(c2ccc(F)c(F)c2)C1)c1c[nH]nc1C1CC1 (centres unmarked) [CBK305409],47.7565
20,COCCNC(=O)Cn1c(-c2ccco2)cc2cccnc21 [CBK282720],147.03
21,O=C(Nc1ccc(C(F)(F)F)cc1)N(Cc1ccc2ccccc2c1)CC1CCNCC1 [CBK056720],96.0373
22,COc1cccc(NC(=O)c2cncc(-c3ccc(C(=O)N4CCOCC4)cc3)c2)c1 [CBK160213],89.0452
23,C=CCNC(=O)N[C@H]1[C@H](O)[C@@H](N2CCC(C(=O)OC)CC2)[C@@H]2OC[C@H]1O2 [CBK288807],126.151
24,O=C(Nc1cnc(-c2cccc(C(F)(F)F)c2)c(-c2ccco2)n1)c1ccccn1 [CBK036873],108.724
25,C/C(=N\NC(=O)CCN1CCN(C)CC1)c1ccc(O)cc1 [CBK263142],97.7451
26,COCCN1C(=O)C2(CC(=O)N(CCN3CCCC3=O)C2=O)c2cc(OC)ccc21 (centres unmarked) [CBK075189],98.8402

row,SMILES,% of control remaining
1,CCOc1cc(OCC)cc(C(=O)N2CCCC3(CC2)CC(=O)c2ccc(C)cc2O3)c1 (centres unmarked) [CBK168241],92.6766
2,O=C(Nc1ccc(F)c(F)c1)N[C@H]1CC[C@@]2(c3cccc(Br)c3)CCN(Cc3ccccc3)[C@H]2C1 [CBK047515],61.7414
3,O=C(NCc1ccccc1)c1cnccc1C(F)(F)F [CBK200194],86.9506
4,CNC1(c2nnnn2CCOC(=O)Nc2ccc(Cl)cc2)CCCC1 [CBK266253],92.0622
5,Cc1cccc(CN2CCC(NC(=O)C3(C#N)CCCC3)CC2)c1 [CBK305781],44.5949
6,CN(C)CCCn1cccc1C=O [CBK261993G],93.8317
7,Cc1ccc(C)c(CC(=O)N(CCC(=O)O)C2CCOCC2)c1 [CBK305469],136.519
8,COc1ccc([C@@]23CC[C@@H](NC(=O)Nc4cc(C)nc(C)c4)C[C@@H]2N(C)CC3)cc1OC [CBK045876],80.5493
9,COc1ccc(C2=NN(C(=O)CCCC(=O)O)C(c3ccc4nccnc4c3)C2)cc1OC (centres unmarked) [CBK297785],115.42
10,O=C(NCc1ccc(C(=O)O)cc1)NC1CCCCC1 [CBK286980],119.809
11,CCOc1cc(S(=O)(=O)NCc2ccncc2)ccc1Br [CBK270147],82.3871
12,O=S(=O)(NCCc1nc2ccccc2[nH]1)c1ccc(Cl)c(Cl)c1 [CBK264416],97.1269
13,O=C(CSc1nccn(-c2ccc(F)cc2)c1=O)Nc1ccc(F)cc1 [CBK287768],66.9297
14,O=C(NCc1nc2ccccc2[nH]1)c1cc(Br)cnc1N1CCOCC1 [CBK076278],100.063
15,c1ccc(OCCN2CCCN(c3cc(OCC4COc5ccccc5O4)ncn3)CC2)cc1 (centres unmarked) [CBK083395T],72.584
16,CCN(CC)C(=O)c1ccsc1NS(=O)(=O)c1ccc(Br)cc1 [CBK042318],106.611
17,COc1cccc(CC(=O)N2CCC(Cc3ccccc3-c3ccccc3)(C(N)=O)CC2)c1 [CBK285730],107.736
18,O=[N+]([O-])c1cc(CN2CCN(c3ccccc3)CC2)c(O)c2ncccc12 [CBK218696],115.137
19,CN(C)CCCNC(=O)c1ccc([N+](=O)[O-])o1 [CBK262118],40.9056
20,Cc1nc(CNCc2c(C(C)C)nn(C)c2N(C)C)cs1 [CBK305119],67.9957
21,Cc1ccc2[nH]c(C)c(CC(=O)N(C)CCN3CCCCC3)c2c1 [CBK282749],100.586
22,COc1ccc(CCNC(=O)CCn2nc(C)c(Cl)c2C)cc1C [CBK281643],88.023
23,Cc1ccc(C(=O)C2=C(O)C(=O)N(CCO)C2c2ccccc2[N+](=O)[O-])cc1 (centres unmarked) [CBK263822],95.5384
24,CC(C)CCc1c(O)nc(SCCN2CCOCC2)n(-c2ccccc2)c1=O [CBK263363C],93.7086
25,O=[N+]([O-])c1ccc(Sc2cccs2)c(C(F)(F)F)c1 [CBK002621],76.2517
